Results taken from the RNAGym collection of RNA variant scans (doi:10.7554/elife.90254).
The source gives no read counts; variants with many changes may rest on few reads.

B1: LINE1-mini (parent)
chain: GGCAGAGCUCAACACAGCGUGGCAAAGUGGCUGUGGCUAGACUGCC

Variants of: B1
Test: self-cleavage, relative activity (ratio to wild type); higher = more cleavage; in vitro, sequencing; the parent is a self-cleaving ribozyme

Question: With GUCAGAGCUCAUCACAGCAUGGCAAAGUGGCUGUGGCUAUACUGCC [G2U A12U G19A G40U] as the variant, how does the self-cleavage read?
Answer: 0.03

Question: Which self-cleavage does the source give for GUCAGAGCUCAACUCAGCGUGGCAAAGGUGCUCUGGCUAGACUGCC [G2U A14U U28G G29U G33C] here?
Answer: 0.02

Question: Which self-cleavage does the source give for GUCAGAGCUCUACACAGCGAGGCAAGGUGGCUGUGGCUAAACUGCC [G2U A11U U20A A26G G40A] here?
Answer: 0.01

Question: Which self-cleavage does the source give for GUCAGAGCUCAACACAGCGUGGCAACGUAGCUCUGGCUAGACUGCC [G2U A26C G29A G33C] here?
Answer: 0.03

Question: With GUCAGAGCUCCACACAACGUGGCAAAGUGGCUGUGGCGAGAUUGCG [G2U A11C G17A U38G C42U C46G] as the variant, how does the self-cleavage read?
Answer: 0

Question: Which self-cleavage does the source give for GUCAGAGCUCAACACAGCGUGGCAGAUUGGCUGUGGCUAGACUGCA [G2U A25G G27U C46A] here?
Answer: 0.02

Question: Which self-cleavage does the source give for GUCAGAGCUCAACGCAGCGUGGCAAAGUGGCUGUGACAAGACUGCC [G2U A14G G36A U38A] here?
Answer: 0.01

Question: For GUCAGAGCUCAACACUGCGUGGCAAAGUGGCCCUGGAUAGACUGCC [G2U A16U U32C G33C C37A], which self-cleavage is on record?
Answer: 0.01

Question: Which self-cleavage does the source give for GUCAGAGCUCAACACAGCGUGGCAAGGUGGCUGUGGCUAAACUGCC [G2U A26G G40A] here?
Answer: 0.05

Question: For GUCAGAGCUCACCACAGCGUGGCACAGUGGCGGUGGCUAGACUGCC [G2U A12C A25C U32G], which self-cleavage is on record?
Answer: 0.01

Question: With GUCAGAGCUCAUCACAGUAUGGCAAUGUGGCUGUCGCUAGACUGCC [G2U A12U C18U G19A A26U G35C] as the variant, how does the self-cleavage read?
Answer: 0

Question: Which self-cleavage does the source give for GUCAGAGCUCAACCCAGCGUGGCAAAGUGGCUGUGGCUUUGCUGCC [G2U A14C A39U G40U A41G] here?
Answer: 0

Question: For GUCAGAGCUCAGCACAGCGUGGCAAAGUGUCAGUGGCUAGACUGCC [G2U A12G G30U U32A], which self-cleavage is on record?
Answer: 0.02

Question: For GUCAGAGCUCAUCACAACGUGGCAAAGUGGCUGUGGCUAGACUGCC [G2U A12U G17A], which self-cleavage is on record?
Answer: 0.03

Question: For GUCAGAGCUCUACACAGUGUGGCAAAGUGGCUGUGGCUAGACUUCC [G2U A11U C18U G44U], which self-cleavage is on record?
Answer: 0.02

Question: Which self-cleavage does the source give for GUCAGAGCUCAACUCAGCGUGGCAAAGUGGCUGUUGCUAGACUGCC [G2U A14U G35U] here?
Answer: 0.04

Question: With GUCAGAGCUCGUCACAGCGUGGCAAAGUGGCUGUGGCUAGAAUGCC [G2U A11G A12U C42A] as the variant, how does the self-cleavage read?
Answer: 0.01

Question: For GUCAGAGCUCAACGCAGCGUGGCGAAGUGGCUGUGCCUAGACUGCC [G2U A14G A24G G36C], which self-cleavage is on record?
Answer: 0.01

Question: Which self-cleavage does the source give for GUCAGAGCUCAACACAGCGUGGCAAGGCGGCUGUGGCUACGCUGCC [G2U A26G U28C G40C A41G] here?
Answer: 0.02

Question: Which self-cleavage does the source give for GUCAGAGCUCAACACAGCGUGGCAACGUUGCUGUGGCUAGACUGCC [G2U A26C G29U] here?
Answer: 0.1

Question: Which self-cleavage does the source give for GUCAGAGCUCAACACAGCGUGGCAACGUGUCUGUGGCUAGACUUCC [G2U A26C G30U G44U] here?
Answer: 0.19

Question: Which self-cleavage does the source give for GUCAGAGCUCAACACAGCGUGGCGAAGUGGCUGUGGCUAAACUACC [G2U A24G G40A G44A] here?
Answer: 0.07

Question: Which self-cleavage does the source give for GUCAGAGCUCCACACAGCGAGGCUUAUUGGCUGUGGCUAGACUGCC [G2U A11C U20A A24U A25U G27U] here?
Answer: 0.01

Question: For GUCAGAGCUCACCACAGCGUAGCAAUGUGGCUGUGGCUAGACUGCC [G2U A12C G21A A26U], which self-cleavage is on record?
Answer: 0.02

Question: Which self-cleavage does the source give for GUCAGAGCUCUACACAACGUGGCAAAGUGGCUGUGGCUAGACUGCC [G2U A11U G17A] here?
Answer: 0.01

Question: For GUCAGAGCUCCACACAGCGUGGCAAAGCGGCUGUGGCUAGACAGCC [G2U A11C U28C U43A], which self-cleavage is on record?
Answer: 0

Question: With GUCAGAGCUCAACCCCUCGUGGGAAAGACGAUGUGGCUAGACUGAC [G2U A14C A16C G17U C23G U28A G29C C31A C45A] as the variant, how does the self-cleavage read?
Answer: 0.01

Question: With GUCAGAGCUCAACACAGCGUGGCAUAGUGGCUGUGGCUAGAUUGCC [G2U A25U C42U] as the variant, how does the self-cleavage read?
Answer: 0.02

Question: With GUCAGAGCUCAACACCGCGUGGCAAAGUGGCUGUGGCUAGAGUGAC [G2U A16C C42G C45A] as the variant, how does the self-cleavage read?
Answer: 0.01

Question: Which self-cleavage does the source give for GUCAGAGCUCAGCACAGCGUGGCAAACUGGCUGUGGCUAGCCCGCC [G2U A12G G27C A41C U43C] here?
Answer: 0.01

Question: With GUCAGAGCUCGACACAGCGUGGCAAUGUGGCUGUGGCUAGACUGCC [G2U A11G A26U] as the variant, how does the self-cleavage read?
Answer: 0.02

Question: For GUCAGAGCUCACCACAGCGUGGUAAAUUGGCGGUGGCUAGACUGCC [G2U A12C C23U G27U U32G], which self-cleavage is on record?
Answer: 0.02

Question: With GUCAGAGCUCAUCACAGCGUGACAAAGUGGGUGUGGCUAGACUGCC [G2U A12U G22A C31G] as the variant, how does the self-cleavage read?
Answer: 0.01

Question: For GUCAGAGCUCAACACGCUGUGGCAAAGGGGCUGUGGCUAGAUUGCC [G2U A16G G17C C18U U28G C42U], which self-cleavage is on record?
Answer: 0

Question: For GUCAGAGCUCAACACAGCGUGGCCAAGUGGCUGUGGCUAGAUUGCC [G2U A24C C42U], which self-cleavage is on record?
Answer: 0.02

Question: With GUCAGAGCUCUACACAGCGUGGCAAAGUUGCUGUGGCUAGACUUCC [G2U A11U G29U G44U] as the variant, how does the self-cleavage read?
Answer: 0.01

Question: For GUCAGAGCUCAACUCAUCGUGGCAAAGGGGCUGCGGCUAGACUGCC [G2U A14U G17U U28G U34C], which self-cleavage is on record?
Answer: 0.01

Question: Which self-cleavage does the source give for GUCAGAGCUCAACACAGCGUGGCUAAGUGGCUCUGGCUAGACUGCC [G2U A24U G33C] here?
Answer: 0.01

Question: For GUCAGAGCUCACCACAGCGUGGCAAAGUGGCGGUGGCUAGACUGCC [G2U A12C U32G], which self-cleavage is on record?
Answer: 0

Question: With GUCAGAGCUCAACACAGCGUGGCAAUGUGUUUGUGGCUAGACUGCC [G2U A26U G30U C31U] as the variant, how does the self-cleavage read?
Answer: 0.02

Question: With GUCAGAGCUCAACACAGCGUGGCAAGGUGGCUGUGGCUAGACUGCA [G2U A26G C46A] as the variant, how does the self-cleavage read?
Answer: 0.19

Question: Which self-cleavage does the source give for GUCAGAGCUCACCACAGCGUGGCUAAGUGGCUGUGGCUAGACUGCC [G2U A12C A24U] here?
Answer: 0.02

Question: With GUCAGAGCUCACCACAGCGUGGCAAAGUGGCUGUGACCAAACUGCC [G2U A12C G36A U38C G40A] as the variant, how does the self-cleavage read?
Answer: 0.01

Question: With GUCAGAGCUCAACCCAGCGUGUCAAAGUCGCUGUGGCUAGACUGCC [G2U A14C G22U G29C] as the variant, how does the self-cleavage read?
Answer: 0.01

Question: Which self-cleavage does the source give for GUCAGAGCUCCACACAGCGUGUUAAAGUGGCUGUGGCUAGACUGCC [G2U A11C G22U C23U] here?
Answer: 0.07

Question: For GUCAGAGCUCACCACAGCGUGGCAAAGUGGCUGUGGCUAGACAGCC [G2U A12C U43A], which self-cleavage is on record?
Answer: 0.01

Question: For GUCAGAGCUCAACUCAGCGUGGCAAAGCGGAUGUGGCUAGACUGCC [G2U A14U U28C C31A], which self-cleavage is on record?
Answer: 0.03

Question: Which self-cleavage does the source give for GUCAGAGCUCAUCAUAGAGUGGCAAAGUGGCUGUGGCUAGACUGCC [G2U A12U C15U C18A] here?
Answer: 0.01

Question: Which self-cleavage does the source give for GUCAGAGCUCAACGCAGCGUCGCAAAGUGGCUGUGGCUAGACUGCC [G2U A14G G21C] here?
Answer: 0.08

Question: Which self-cleavage does the source give for GUCAGAGCUCCUCACAGCGUGGCAAAUUGGCUUUGGCUAGGCUGCC [G2U A11C A12U G27U G33U A41G] here?
Answer: 0.01

Question: Which self-cleavage does the source give for GUCAGAGCUCAACACGGCGUGGCAGAGUGGCUGUGGCUCGACUGCC [G2U A16G A25G A39C] here?
Answer: 0.02

Question: With GUCAGAGCUCGACACAGCGUGGCAAAGUAGCUGUGGCUAGGCUGCC [G2U A11G G29A A41G] as the variant, how does the self-cleavage read?
Answer: 0

Question: With GUCAGAGCUCUAAAUAUCGUGGCAAAGUGGCUGUGGUUAGACUGCC [G2U A11U C13A C15U G17U C37U] as the variant, how does the self-cleavage read?
Answer: 0.01

Question: For GUCAGAGCUCAACACAGCGUGGCAUAGUGGCCGUGGCUAUACUGCC [G2U A25U U32C G40U], which self-cleavage is on record?
Answer: 0.04

Question: For GUCAGUGCUCAAGACAGCGUGGCAAAGUGGCUGUGGCUAGACUGCC [G2U A6U C13G], which self-cleavage is on record?
Answer: 0.04

Question: With GUCAGAGCUCACCAGAGCGUGGCAAAGUGCCUGUGGCUAGACUGCC [G2U A12C C15G G30C] as the variant, how does the self-cleavage read?
Answer: 0.01
